Source: PubChem BioAssay AID488969 (Vanderbilt High Throughput Screening Facility, 2010)
Over roughly 110,000 compounds, “z-score” has its median near -0.1; the highest 2% begin near 2. Some of the results follow.

Each compound was assayed against Metabotropic glutamate receptor 8 (Rattus norvegicus) (UniProt P70579) (assay: mGluR8 Gi/Go-coupled signaling modulation – cell-based, rat, thallium flux, HTS, primary screen (AID 488969)). Conditions: HEK293 rat mGluR8, GIRK (G protein-gated inwardly rectifying potassium channel) thallium flux, FluoZin2; at 10 µM; stronger effect = higher value; submaximal glutamate (EC20) added with thallium.
Chain of UniProt P70579 (P70579 whole entry, looked up): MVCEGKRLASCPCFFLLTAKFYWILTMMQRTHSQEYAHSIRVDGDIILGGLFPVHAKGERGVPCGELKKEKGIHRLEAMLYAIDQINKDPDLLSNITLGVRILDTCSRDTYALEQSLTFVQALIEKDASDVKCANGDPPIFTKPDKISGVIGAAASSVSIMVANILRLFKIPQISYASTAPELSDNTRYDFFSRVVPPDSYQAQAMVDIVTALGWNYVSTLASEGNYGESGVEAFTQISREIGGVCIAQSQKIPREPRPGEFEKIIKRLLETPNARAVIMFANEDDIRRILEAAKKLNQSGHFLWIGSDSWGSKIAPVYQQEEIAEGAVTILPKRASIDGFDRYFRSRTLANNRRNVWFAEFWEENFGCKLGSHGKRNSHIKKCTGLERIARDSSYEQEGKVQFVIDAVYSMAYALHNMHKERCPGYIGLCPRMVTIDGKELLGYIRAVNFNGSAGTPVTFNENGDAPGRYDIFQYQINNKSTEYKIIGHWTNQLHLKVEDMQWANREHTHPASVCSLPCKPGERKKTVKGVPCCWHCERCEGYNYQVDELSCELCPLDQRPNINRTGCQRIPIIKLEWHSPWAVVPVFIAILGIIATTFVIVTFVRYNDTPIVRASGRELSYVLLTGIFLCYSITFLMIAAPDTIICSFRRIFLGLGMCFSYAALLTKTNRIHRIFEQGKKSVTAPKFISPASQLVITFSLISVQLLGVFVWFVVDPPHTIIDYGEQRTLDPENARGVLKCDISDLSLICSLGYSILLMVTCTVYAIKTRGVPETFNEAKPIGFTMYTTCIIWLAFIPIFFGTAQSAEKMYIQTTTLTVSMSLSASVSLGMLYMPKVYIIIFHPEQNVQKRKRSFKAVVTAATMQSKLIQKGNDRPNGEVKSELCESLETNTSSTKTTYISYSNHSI

| Structure (SMILES) | z-score |
| --- | --- |
| C(=N\Nc1nc2ccccc2s1)/c1cccs1 | -0.0364 |
| CC(C)NC(=O)c1sc2nc(-c3cccs3)cc(-c3cccs3)c2c1N | -0.223 |
| CC(C)(C)C(=O)Nc1ccc(C(=O)NCc2cccnc2)cc1 | 1.3 |
| CN1C2CCC1/C(=C\c1ccccc1)C(=O)/C2=C\c1ccccc1 | -0.182 |
| CCOc1nc(Nc2ccc(OC)cc2)nc(OCC)n1 | -1.62 |
| Cn1cnc([N+](=O)[O-])c1Nc1ccc(O)cc1 | -0.174 |
| COc1ccc(Oc2coc3cc(OC(=O)/C=C/c4ccc(F)cc4)ccc3c2=O)cc1 | -0.00429 |
| O=C(CN1CCN(Cc2ccccc2)CC1)Nc1ccc(Cl)cn1 | -0.158 |
| O=C(CSc1ccccc1C(=O)O)NC1CCCCCCC1 | -0.178 |
| CC(Sc1nncs1)C(=O)Nc1ccc(Cl)cn1 (centres undefined) | -0.278 |
| Cc1cc(=O)oc2cc(NC(=O)C3COc4ccccc4O3)ccc12 (centres undefined) | 0.156 |
| Cc1nnc(SCCn2c(N3CC(C)CC(C)C3)nc3c2c(=O)n(C)c(=O)n3C)s1 (centres undefined) | -0.0272 |
| COc1cc(/C=N/NC(=O)C(Cc2c[nH]c3ccccc23)NC(=O)OCc2ccccc2)cc([N+](=O)[O-])c1O (centres undefined) | -0.505 |
| O=C1c2ccccc2C(=O)N1CN(C(=O)COc1ccc(Cl)cc1Cl)c1cccc(F)c1 | -0.145 |
| COc1ccc(C(=O)NCC(=O)OCC(=O)N2CCN(S(=O)(=O)c3ccccc3)CC2)cc1 | -0.266 |
| O=C(OCN1C(=O)c2ccccc2C1=O)c1ccco1 | 0.51 |
| CC(C)(C)C1C=C(Sc2ccccc2)C(=O)O1 (centres undefined) | -0.754 |
| Cc1ccc(CSc2nnc(-c3cccnc3)n2N)cc1 | -0.403 |
| Cn1c(=O)n(C)c2cc([N+](=O)[O-])c(N3CCN(C(=O)c4cccc(Cl)c4)CC3)cc21 | -0.269 |
| Cc1cc2c(cc1C)NC(c1ccccn1)C1=C(CC(C)(C)CC1=O)N2 (centres undefined) | -0.311 |
| O=C(OCC1CC(c2ccccc2Cl)=NO1)c1ccc(Br)cc1 (centres undefined) | -0.433 |
| Cc1sc(NC(=O)CN2CCN(c3ccccn3)CC2)c(C#N)c1C | 0.483 |
| Cc1cc(C)cc(NC(=O)COC(=O)CCCNC(=O)c2ccc(Cl)cc2)c1 | -0.516 |
| Cc1csc(NC(=O)CCSCCc2ccccn2)n1 | -0.178 |
| Cc1ccc(C)c(N(CC(=O)Nc2ccc(-c3nc4ccc(C)cc4s3)cc2)S(C)(=O)=O)c1 | -0.3 |
| Cc1ccc(S(=O)(=O)n2nc(C)c(C#N)c2N)cc1 | 0.264 |
| CC(=O)N1CCN(CCN=CC2=C(O)CC(c3cccs3)CC2=O)CC1 (centres undefined) | -0.239 |
| NC(=O)c1ccc(NC(=O)COC(=O)c2c3c(nc4ccccc24)/C(=C\c2ccc4c(c2)OCO4)CCC3)cc1 | 0.219 |
| O=[N+]([O-])c1nn(-c2ccc3c(c2)OCCO3)n(O)c1=Nc1ccccc1 | -0.288 |
